From ChEMBL document CHEMBL1157539, “Thousands of chemical starting points for antimalarial lead identification” (Nature, 2010)
The full ranking holds about 13,000 compounds; the median of “IFI” is about 4, and the highest 2% start at about 17. This is one part of the list.

Test: GSK_TCMDC: Inhibition Frequency Index (IFI). The number of non-kinase HTS assays where a compound showed > 50 % inhibition, expressed as a percentage of the number of such assays in which the compound was tested (-0 is zero)
Format: functional

| Structure (SMILES) | IFI |
| --- | --- |
| CN(CCCCNC(=O)c1cc2ccccc2[nH]1)C1CC2(CCN(C(=O)OC(C)(C)C)CC2)c2ccccc21 (stereo not drawn) | 4.55% |
| Cc1cccc2nc(-c3cccc(-c4cccc(CNCCc5cccn5C)c4)c3)[nH]c12 | 0.98% |
| COc1ccc(-c2nc3cccnc3n2CC(=O)Nc2cc(Cl)c(Cl)cc2Cl)c(OC)c1 | 7.69% |
| COc1ccc(CN2CCCC(OC(c3ccc(F)cc3)c3ccc(F)cc3)C2)c(O)c1 (stereo not drawn) | 2.94% |
| Cn1cc(CN2CCCC(COC(c3ccccc3)c3ccccc3)C2)cn1 (stereo not drawn) | 5.3% |
| CN(C)CCCOc1ccc(CCCCc2ccc(Cl)cc2C(=O)c2ccccc2)cc1 | 5.15% |
| Cc1c(C(=O)NCc2ccncc2)sc2nc(-c3cccc([N+](=O)[O-])c3)cn12 | 4% |
| Fc1ccc(C(OCC2CCCN(Cc3cccc4cccnc34)C2)c2ccc(F)cc2)cc1 (stereo not drawn) | 3.13% |
| COc1cc2nc(NCCN3CCOCC3)n3nc(-c4ccccc4)nc3c2cc1OC | -0% |
| COc1ccc(C(O)CNC(C)CCc2ccccc2)cc1C(F)(F)F (stereo not drawn) | 0.83% |
| COc1ccc(C2C(C(=O)Nc3cc(OC)c(OC)c(OC)c3)c3cc(OC)c(OC)cc3C(=O)N2C)cc1 (stereo not drawn) | 0% |
| COc1cc2nc(N3CCC(CNC(=O)/C=C/c4cccc(C)c4)CC3)nc(N)c2cc1OC | 1.79% |
| CC(C)NCc1cccc(-c2cccc(-c3nc4ccccc4[nH]3)c2)c1 | 4.9% |
| Cc1sc(N2CCCCC2)nc1C(=O)Nc1ccc(F)cc1C(F)(F)F | -0% |
| CCOc1cc(C(=O)NCCCN2CCCCC2C)ccc1-c1nc2cc(Cl)ccc2[nH]1 (stereo not drawn) | 0.69% |
| O=C1NC(=S)N/C1=C/C=C/c1ccc([N+](=O)[O-])o1 | 6.67% |
| CCCCOc1cc(CNCCCCCCNCc2cc(OCCCC)cc3ccccc23)c2ccccc2c1 | 12.5% |
| CCCCNc1c(C(=O)OCC)c(C)nc2c1[nH]c1ccccc12 | 2.17% |
| CC(=O)Nc1ccc(C(=O)Nc2cccc(-c3ccc(-c4nc5cccc(C)c5[nH]4)cc3)c2)cn1 | 5.36% |
| Nc1nc(N)c2c(ccc3nn(C4CCCC4)cc32)n1 | 2.78% |
| CCCNC(=O)c1cncc(-c2ccc(CNCCCc3ccccc3)cc2)c1 | 1.61% |
| O=C1CCCN1CCCNCc1ccc(-c2cccc(-c3nc4ccccc4[nH]3)c2)cc1 | 1.92% |
| CC(C)(C)c1ccccc1OC(=O)c1ccccc1 | 1.5% |
| Cc1nc2c(=O)sc3ccccc3c2n1Cc1ccccc1 | 2.16% |

| Structure (SMILES) | IFI |
| --- | --- |
| FC(F)(F)c1cccc(CNC2CCN(CC3CCCCC3)CC2)c1 | 2.7% |
| CCN(CC)c1ccccc1CNC(=O)c1cc(Cl)c(N)cc1OC | 2.94% |
| COc1ccc(-c2cccc(NC(=O)c3cccc(Cl)c3)c2)cc1CN1CCCC1 | 6% |
| Cc1[nH]c(C)c(-c2ccc(-c3ccc(OC(F)(F)F)cc3)cc2)c(=O)c1Cl | 3.67% |
| COc1cc2ccccc2c(CNCCCCCCNCc2c(OC)c(OC)cc3ccccc23)c1OC | 12.1% |
| CS(=O)(=O)c1ccc(CCNCc2ccc(-c3cccc(-c4nc5ccccc5[nH]4)c3)cc2)cc1 | 6.73% |
| CN(C)CCCNCc1ccc(-c2ccc(CNCCOc3ccccc3)cc2)cc1 | 4.86% |
| COc1cc2c(cc1COc1ccccc1)CCN1Cc3cc(OC)c(OC)cc3CC21 (stereo not drawn) | 0% |
| CS(=O)(=O)c1cc2c(Nc3ccc(N4CCOCC4)cc3)c(C(N)=O)cnc2cc1Br | 4.96% |
| Cc1c(CNCCCNc2cc(=O)c3ccccc3[nH]2)sc(C(F)F)c1Br | 5.84% |
| O=c1c(NCCCN(Cc2ccc(F)cc2)c2ccccn2)c(NCc2ccncc2)c1=O | 0.7% |
| CCN(CC)CCCC(C)Nc1ccnc2[nH]c3ccccc3c12 (stereo not drawn) | 0.78% |
| CCNC(=O)CCc1cccc(Br)c1 | 3.76% |
| COc1ccc(Nc2ccnc3cc4ccccc4cc23)cc1 | 3.73% |
| COc1cc(Nc2nc(N)n(C(=O)c3ccc4c(c3)OCO4)n2)cc(OC)c1OC | 9.09% |
| NCC1CCCN1Cc1ccc(-c2ccc(-c3nc4cc(C(F)(F)F)ccc4[nH]3)s2)cc1 (stereo not drawn) | 6.93% |
| O=C(C=Cc1cn(-c2ccccc2)nc1-c1ccccc1)N1CCN(c2ccncc2)CC1 | 9.33% |
| CCCc1cn2c3c(cc(C(=O)N[C@@H](Cc4ccccc4)[C@H](O)CNC4CCOCC4)cc13)N(C)S(=O)(=O)CC2 | 2.36% |
| Cn1c(N)c(C(=O)CSc2ncc(-c3ccc(F)cc3)n2Cc2ccccc2)c(=O)n(C)c1=O | 1.49% |
| COc1cc(NCC(C)CNCc2cn(Cc3ccccc3)c3ccccc23)nc2ccccc12 (stereo not drawn) | 7.19% |
| O=C(Nc1ccc(Cl)cc1)Nc1nc2cc([N+](=O)[O-])ccc2[nH]1 | 6.29% |
| Cc1[nH]c(C)c(-c2ccc(OCCOc3ccc(C(F)(F)F)cn3)cc2)c(=O)c1Br | 3.77% |
| N[C@@H](Cc1cc(I)c(Oc2ccc(O)c(C(=O)O)c2)c(I)c1)C(=O)O | -0% |
| O=C(/C=C/c1cccc2c1OCO2)Nc1ccnc2ccncc12 | -0% |

| Structure (SMILES) | IFI |
| --- | --- |
| O=C(Nc1nccs1)c1cn(-c2ccccc2)nc1-c1ccc(Cl)s1 | 2.14% |
| O=C(CC1CCCCC1)NCC(NCCCNc1cc(=O)c2ccccc2[nH]1)c1cc(Br)cc(Br)c1 (stereo not drawn) | 4.51% |
| O=C(N[C@H]1CCN(CCc2ccc(O[C@H]3CCNC3)c(Cl)c2)C1)c1ccc(Cl)c(Cl)c1 | 3.55% |
| Cc1c(N)ccc2[nH]c(-c3ccc(N)cc3)nc12 | 4.2% |
| CC(C)CCNCc1c(O)ccc2ccccc12 | 0% |
| Cc1cc(NC2CCCC2)nc(Nc2ccccc2C)n1 | 3.08% |
| COc1cccc(-c2nc3c(N4CCN(c5ccncc5)CC4)cccc3n2CC2CCCCCN2)n1 (stereo not drawn) | 2.03% |
| CN(C)c1cc(NC(=O)Nc2ccc(SC(F)(F)F)cc2)c2ccccc2n1 | 15% |
| OC1=C2C(=Nc3ccccc3SC2c2cccs2)c2ccccc21 (stereo not drawn) | 3.5% |
| C[C@H](NC(=O)c1c(CN2CCC(N3CCCCC3)CC2)c(-c2ccccc2)nc2cc(O)ccc12)C1CCCCC1 | 2.14% |
| FC(F)(F)c1cnc(Sc2nnc(-c3ccco3)o2)c(Cl)c1 | 6.38% |
| Clc1ccc(OCc2ccccc2)c(-c2nc(-c3nc4ccc(Cl)cc4[nH]3)cs2)c1 | 1.3% |
| N=C(N)NN=Cc1c2ccccc2c(Cl)c2ccc(Cl)cc12 | 11.7% |
| COc1ccccc1NC(=O)Nc1cccc(-c2ccc(-c3nc4cc(C(F)(F)F)ccc4[nH]3)cc2)c1 | 6.06% |
| COc1ccc(-c2ccc(NC(=O)c3ccc(C#N)cc3)cc2)cc1CN(C)CCO | 2.97% |
| CC(=O)Nc1ccc(CN2CCc3ccc(NS(=O)(=O)c4cccc(OCc5ccc(Cl)cc5)c4)cc3CC2)s1 | 7.06% |
| N#Cc1ccc(N(CCNS(=O)(=O)c2cc(Br)c(Cl)s2)Cc2ccccc2C(F)(F)F)cc1C(F)(F)F | 2.96% |
| Cc1noc(C)c1-c1cccc(CNCc2ccc(-c3cccc(-c4nc5ccccc5[nH]4)c3)cc2)c1 | 5.71% |
| CCN(c1ccc(O)c(CN2CCCCC2)c1)c1ccc([N+](=O)[O-])cn1 | -0% |
| CC(C)NCc1ccc(-c2ccc(-c3nc4cc(C(F)(F)F)ccc4[nH]3)s2)cc1 | 8.57% |
| COc1ccc(CNCCc2cccs2)cc1-c1ccc(OC)c(S(=O)(=O)NCCN2CCCC2)c1 | 7% |
| O=C(NCc1cccc(C(F)(F)F)c1)C1CCCN(C(=O)c2ccc(O)c(-c3ccc(Cl)c(Cl)c3)c2)C1 (stereo not drawn) | 4.51% |
| CN(C)CCN1CCN(CCCN2c3ccccc3Sc3ccc(C(F)(F)F)cc32)CC1 | 9.79% |
| CN1CCN(c2ccnc3ccc(NC(=O)Nc4ccc5c(c4)CCCC5=O)cc23)CC1 | 0% |

| Structure (SMILES) | IFI |
| --- | --- |
| COc1cc(Cl)c(C)cc1-n1cc(C(=O)c2cc(Br)ccc2O)cc(C#N)c1=O | 4.29% |
| COc1c(C2=CCN(CCCCNC(=O)c3ccc(-c4ccc(C#N)cc4)cc3)CC2)ccc2c1CCCC2 | 7.27% |
| CC(Cc1ccc(NC(=O)c2ccc(CNCc3ccccc3)cc2)cc1)N(CCc1cccc(Cl)c1)C(=O)OC(C)(C)C (stereo not drawn) | 1.44% |
| COc1cc2c(c(Cl)c1OC)CCN(Cc1ccccc1)CC2c1ccc(C(N)=O)cc1 (stereo not drawn) | -0% |
| C=CCOC(=O)N1CCC(CNCc2ccc(-c3cccc(-c4nc5cccc(C)c5[nH]4)c3)cc2)C1 (stereo not drawn) | 7.84% |
| CC(C)NCc1ccc(-c2ccc(-c3nc4cc(F)ccc4[nH]3)cc2)cc1 | 7.77% |
| O=C(NC1CC1)c1cnc(N2CCCC(c3ccccc3)C2)c(Cl)c1 (stereo not drawn) | 6.12% |
| COc1cc(OC)cc(C(=O)Nc2cccc(-c3cn4ccc(C)cc4n3)c2)c1 | -0% |
| CCOc1ccc(N2CCN(CCCCNC(=O)c3ccc(NC(=O)c4ccc(Cl)cc4)cc3)CC2)c(OCC)c1 | 3.54% |
| O=C(/C=C/c1ccc(Cl)c(Cl)c1)NCCCCCN1CCC(NC(=O)Nc2cccc(C(F)(F)F)c2)CC1 | 10% |
| N#Cc1cccc(-c2cnc(N)c(-c3nc4cc(S(N)(=O)=O)ccc4[nH]3)c2)c1 | 5.04% |
| CCN(CC)C(=O)C1CCCN(c2cc(C)nc(Nc3ccc(Cl)cc3)n2)C1 (stereo not drawn) | 7.23% |
| O=C(N[C@@H](Cc1ccccc1)[C@H](O)CNC1CCCc2ccccc21)c1cc(C2CCCC2)cc(N2CCCC2=O)c1 (stereo partly drawn) | 10.6% |
| CCc1nc(N)nc(N)c1-c1ccc(C(C)(C)C)cc1 | 2.08% |
| CO/C(=C\C=C\c1cc2cc(Cl)c(Cl)cc2[nH]1)C(=O)NCCCN1CCN(c2cccc(O)c2)CC1 | 14.6% |
| COc1cc2nccc(Nc3ccc(NC(=O)c4ccc(C)cc4)c(O)c3)c2cc1OC | 5.11% |
| Brc1cc(Br)c2c(c1)C(NCCCNc1nc3ncccc3[nH]1)CCN2 (stereo not drawn) | 6.15% |
| COc1ccc2ncc(F)c(NC(=O)C3CCC(NCc4cc5c(F)cccc5[nH]4)CC3)c2n1 (stereo not drawn) | 2.86% |
| FC(F)(F)c1ccc2[nH]c(-c3cccc(-c4ccc(CNCCc5ccncc5)cc4)c3)nc2c1 | 9.8% |
| N=C(NCCc1c[nH]c2ccccc12)NCc1ccccc1Cl | 4.32% |
| COc1ccc(CCN(C)CCCOc2ccc(NC(=O)COc3cccc4sc5ccccc5c(=O)c34)cc2)cc1OC | 10% |
